# Measured values from the supplement of paper PMC8728848.
# The other results are listed elsewhere or left out.
# B1: Gal 8 (Mus musculus), Q9JL15 (protein)
# chain: MGGSHHHHHHGMASMLSLNNLQNIIYNPIIPYVGTITEQLKPGSLIVIRGHVPKDSERFQVDFQLGNSLKPRADVAFHFNPRFKRSSCIVCNTLTQEKWGWEEITYDMPFRKEKSFEIVFMVLKNKFQVAVNGRHVLLYAHRISPEQIDTVGIYGKVNIHSIGFRFSSASALPHTLGDLQSMETSALGLTQINRENIQKPGKLQLSLPFEARLNASMGPGRTVVIKGEVNTNARSFNVDLVAGKTRDIALHLNPRLNVKAFVRNSFLQDAWGEEERNITCFPFSSGMYFEMIIYCDVREFKVAINGVHSLEYKHRFKDLSSIDTLSVDGDIRLLDVRSW
# Assays:
# Assay in all cases: glycan array binding signal (z-score within array); higher = stronger binding
# Conditions in all cases: glycan notation: IUPAC condensed, linker removed
# [1] = target: GlcNAc(a1-6)Gal(b1-4)GlcNAc
# How it was run: (§1)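 Columns mapping to the same glycan were averaged after glycan names were converted to IUPAC-condensed notation. The data come from 3228 arrays in the Consortium for Functional Glycomics database, limited to those with an available protein sequence. Binding is reported as a within-array Z-score averaged across arrays of one protein sequence and across linkers.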
# [2] = target: GlcNAc(b1-2)Gal(b1-3)GalNAc
# How it was run: as §1
# [3] = target: GlcNAc(b1-2)Man(a1-3)[GlcNAc(b1-2)Man(a1-6)]Man(b1-4)GlcNAc(b1-4)GlcNAc
# How it was run: as §1
# [4] = target: GlcNAc(b1-2)Man(a1-3)[GlcNAc(b1-2)Man(a1-6)]Man(b1-4)GlcNAc(b1-4)[Fuc(a1-6)]GlcNAc
# How it was run: as §1
# [5] = target: GlcNAc(b1-2)Man(a1-3)[GlcNAc(b1-4)][GlcNAc(b1-2)Man(a1-6)]Man(b1-4)GlcNAc(b1-4)GlcNAc
# How it was run: as §1
# [6] = target: GlcNAc(b1-2)Man(a1-3)[GlcNAc(b1-4)][GlcNAc(b1-2)Man(a1-6)]Man(b1-4)GlcNAc(b1-4)[Fuc(a1-6)]GlcNAc
# How it was run: as §1
# [7] = target: GlcNAc(b1-2)[GlcNAc(b1-4)]Man(a1-3)[GlcNAc(b1-2)Man(a1-6)]Man(b1-4)GlcNAc(b1-4)GlcNAc
# How it was run: as §1
# [8] = target: GlcNAc(b1-2)[GlcNAc(b1-4)]Man(a1-3)[GlcNAc(b1-4)][GlcNAc(b1-2)Man(a1-6)]Man(b1-4)GlcNAc(b1-4)GlcNAc
# How it was run: as §1
# [9] = target: GlcNAc(b1-2)[GlcNAc(b1-4)]Man(a1-3)[GlcNAc(b1-4)][GlcNAc(b1-2)[GlcNAc(b1-6)]Man(a1-6)]Man(b1-4)GlcNAc(b1-4)GlcNAc
# How it was run: as §1
# [10] = target: GlcNAc(b1-2)[GlcNAc(b1-4)]Man(a1-3)[GlcNAc(b1-4)][GlcNAc(b1-2)[GlcNAc(b1-6)]Man(a1-6)]Man(b1-4)GlcNAc(b1-4)[Fuc(a1-6)]GlcNAc
# How it was run: as §1
# [11] = target: GlcNAc(b1-2)[GlcNAc(b1-6)]Man(a1-6)[GlcNAc(b1-2)Man(a1-3)]Man(b1-4)GlcNAc(b1-4)GlcNAc
# How it was run: as §1
# [12] = target: GlcNAc(b1-2)[GlcNAc(b1-6)]Man(a1-6)[GlcNAc(b1-2)Man(a1-3)]Man(b1-4)GlcNAc(b1-4)[Fuc(a1-6)]GlcNAc
# How it was run: as §1
# [13] = target: GlcNAc(b1-2)[GlcNAc(b1-6)]Man(a1-6)[GlcNAc(b1-4)][GlcNAc(b1-2)Man(a1-3)]Man(b1-4)GlcNAc(b1-4)GlcNAc
# How it was run: as §1
# GlcNAc(b1-3)Fuc = target: GlcNAc(b1-3)Fuc
# How it was run: as §1
# GlcNAc(b1-3)Gal = target: GlcNAc(b1-3)Gal
# How it was run: as §1
# [14] = target: GlcNAc(b1-3)Gal(b1-3)GalNAc
# How it was run: as §1
# GlcNAc(b1-3)Gal(b1-4)Glc = target: GlcNAc(b1-3)Gal(b1-4)Glc
# How it was run: as §1
# [15] = target: GlcNAc(b1-3)Gal(b1-4)GlcNAc
# How it was run: as §1
# [16] = target: GlcNAc(b1-3)Gal(b1-4)GlcNAc(b1-2)Man(a1-3)[GlcNAc(b1-3)Gal(b1-4)GlcNAc(b1-2)Man(a1-6)]Man(b1-4)GlcNAc(b1-4)GlcNAc
# How it was run: as §1
# [17] = target: GlcNAc(b1-3)Gal(b1-4)GlcNAc(b1-2)Man(a1-3)[GlcNAc(b1-3)Gal(b1-4)GlcNAc(b1-2)Man(a1-6)]Man(b1-4)GlcNAc(b1-4)[Fuc(a1-6)]GlcNAc
# How it was run: as §1
# [18] = target: GlcNAc(b1-3)Gal(b1-4)GlcNAc(b1-2)[GlcNAc(b1-3)Gal(b1-4)GlcNAc(b1-6)]Man(a1-6)[GlcNAc(b1-3)Gal(b1-4)GlcNAc(b1-2)Man(a1-3)]Man(b1-4)GlcNAc(b1-4)GlcNAc
# How it was run: as §1
# [19] = target: GlcNAc(b1-3)Gal(b1-4)GlcNAc(b1-3)Gal(b1-4)GlcNAc
# How it was run: as §1
# [20] = target: GlcNAc(b1-3)Gal(b1-4)GlcNAc(b1-3)Gal(b1-4)GlcNAc(b1-2)Man(a1-3)[GlcNAc(b1-3)Gal(b1-4)GlcNAc(b1-3)Gal(b1-4)GlcNAc(b1-2)Man(a1-6)]Man(b1-4)GlcNAc(b1-4)GlcNAc
# How it was run: as §1
# [21] = target: GlcNAc(b1-3)Gal(b1-4)GlcNAc(b1-3)Gal(b1-4)GlcNAc(b1-2)Man(a1-3)[GlcNAc(b1-3)Gal(b1-4)GlcNAc(b1-3)Gal(b1-4)GlcNAc(b1-2)Man(a1-6)]Man(b1-4)GlcNAc(b1-4)[Fuc(a1-6)]GlcNAc
# How it was run: as §1
# [22] = target: GlcNAc(b1-3)Gal(b1-4)GlcNAc(b1-3)Gal(b1-4)GlcNAc(b1-2)[GlcNAc(b1-3)Gal(b1-4)GlcNAc(b1-3)Gal(b1-4)GlcNAc(b1-6)]Man(a1-6)[GlcNAc(b1-3)Gal(b1-4)GlcNAc(b1-3)Gal(b1-4)GlcNAc(b1-2)Man(a1-3)]Man(b1-4)GlcNAc(b1-4)[Fuc(a1-6)]GlcNAc
# How it was run: as §1
# [23] = target: GlcNAc(b1-3)Gal(b1-4)GlcNAc(b1-3)Gal(b1-4)GlcNAc(b1-3)Gal(b1-4)GlcNAc(b1-2)Man(a1-3)[GlcNAc(b1-3)Gal(b1-4)GlcNAc(b1-3)Gal(b1-4)GlcNAc(b1-3)Gal(b1-4)GlcNAc(b1-2)Man(a1-6)]Man(b1-4)GlcNAc(b1-4)GlcNAc
# How it was run: as §1
# [24] = target: GlcNAc(b1-3)Gal(b1-4)GlcNAc(b1-3)Gal(b1-4)GlcNAc(b1-3)Gal(b1-4)GlcNAc(b1-2)Man(a1-3)[GlcNAc(b1-3)Gal(b1-4)GlcNAc(b1-3)Gal(b1-4)GlcNAc(b1-3)Gal(b1-4)GlcNAc(b1-2)Man(a1-6)]Man(b1-4)GlcNAc(b1-4)[Fuc(a1-6)]GlcNAc
# How it was run: as §1
# [25] = target: GlcNAc(b1-3)Gal(b1-4)GlcNAc(b1-3)Gal(b1-4)GlcNAc(b1-3)Gal(b1-4)GlcNAc(b1-2)[GlcNAc(b1-3)Gal(b1-4)GlcNAc(b1-3)Gal(b1-4)GlcNAc(b1-3)Gal(b1-4)GlcNAc(b1-6)]Man(a1-6)[GlcNAc(b1-3)Gal(b1-4)GlcNAc(b1-3)Gal(b1-4)GlcNAc(b1-3)Gal(b1-4)GlcNAc(b1-2)Man(a1-3)]Man(b1-4)GlcNAc(b1-4)[Fuc(a1-6)]GlcNAc
# How it was run: as §1
# [26] = target: GlcNAc(b1-3)Gal(b1-4)GlcNAc(b1-3)Gal(b1-4)GlcNAc(b1-3)Gal(b1-4)GlcNAc(b1-3)Gal(b1-4)GlcNAc(b1-2)Man(a1-3)[GlcNAc(b1-3)Gal(b1-4)GlcNAc(b1-3)Gal(b1-4)GlcNAc(b1-3)Gal(b1-4)GlcNAc(b1-3)Gal(b1-4)GlcNAc(b1-2)Man(a1-6)]Man(b1-4)GlcNAc(b1-4)GlcNAc
# How it was run: as §1
# [27] = target: GlcNAc(b1-3)Gal(b1-4)GlcNAc(b1-3)Gal(b1-4)GlcNAc(b1-3)Gal(b1-4)GlcNAc(b1-3)Gal(b1-4)GlcNAc(b1-2)Man(a1-3)[GlcNAc(b1-3)Gal(b1-4)GlcNAc(b1-3)Gal(b1-4)GlcNAc(b1-3)Gal(b1-4)GlcNAc(b1-3)Gal(b1-4)GlcNAc(b1-2)Man(a1-6)]Man(b1-4)GlcNAc(b1-4)[Fuc(a1-6)]GlcNAc
# How it was run: as §1
# [28] = target: GlcNAc(b1-3)Gal(b1-4)GlcNAc(b1-3)Gal(b1-4)GlcNAc(b1-3)Gal(b1-4)GlcNAc(b1-3)Gal(b1-4)GlcNAc(b1-2)[GlcNAc(b1-3)Gal(b1-4)GlcNAc(b1-3)Gal(b1-4)GlcNAc(b1-3)Gal(b1-4)GlcNAc(b1-3)Gal(b1-4)GlcNAc(b1-6)]Man(a1-6)[GlcNAc(b1-3)Gal(b1-4)GlcNAc(b1-3)Gal(b1-4)GlcNAc(b1-3)Gal(b1-4)GlcNAc(b1-3)Gal(b1-4)GlcNAc(b1-2)Man(a1-3)]Man(b1-4)GlcNAc(b1-4)[Fuc(a1-6)]GlcNAc
# How it was run: as §1
# [29] = target: GlcNAc(b1-3)Gal(b1-4)GlcNAc(b1-3)Gal(b1-4)GlcNAc(b1-3)GalNAc
# How it was run: as §1
# [30] = target: GlcNAc(b1-3)Gal(b1-4)GlcNAc(b1-3)GalNAc
# How it was run: as §1
# [31] = target: GlcNAc(b1-3)Gal(b1-4)GlcNAc(b1-3)[GlcNAc(b1-3)Gal(b1-4)GlcNAc(b1-3)]GalNAc
# How it was run: as §1
# [32] = target: GlcNAc(b1-3)Gal(b1-4)GlcNAc(b1-6)[Gal(b1-3)]GalNAc
# How it was run: as §1
# [33] = target: GlcNAc(b1-3)Gal(b1-4)GlcNAc(b1-6)[GlcNAc(b1-3)Gal(b1-3)]GalNAc
# How it was run: as §1
# [34] = target: GlcNAc(b1-3)Gal(b1-4)GlcNAc(b1-6)[GlcNAc(b1-3)]Gal(b1-4)GlcNAc
# How it was run: as §1
binder,measurement,setting,value
B1,glycan array binding signal (z-score),[1],-0.54
same,glycan array binding signal (z-score),[2],-0.179
same,glycan array binding signal (z-score),[3],-0.54
same,glycan array binding signal (z-score),[4],-0.537
same,glycan array binding signal (z-score),[5],-0.542
same,glycan array binding signal (z-score),[6],-0.551
same,glycan array binding signal (z-score),[7],-0.534
same,glycan array binding signal (z-score),[8],-0.541
same,glycan array binding signal (z-score),[9],-0.547
same,glycan array binding signal (z-score),[10],-0.548
same,glycan array binding signal (z-score),[11],-0.541
same,glycan array binding signal (z-score),[12],-0.553
same,glycan array binding signal (z-score),[13],-0.539
same,glycan array binding signal (z-score),GlcNAc(b1-3)Fuc,-0.528
same,glycan array binding signal (z-score),GlcNAc(b1-3)Gal,-0.528
same,glycan array binding signal (z-score),[14],0.079
same,glycan array binding signal (z-score),GlcNAc(b1-3)Gal(b1-4)Glc,-0.16
same,glycan array binding signal (z-score),[15],-0.163
same,glycan array binding signal (z-score),[16],0.55
same,glycan array binding signal (z-score),[17],0.421
same,glycan array binding signal (z-score),[18],0.363
same,glycan array binding signal (z-score),[19],1.11
same,glycan array binding signal (z-score),[20],1.55
same,glycan array binding signal (z-score),[21],2.01
same,glycan array binding signal (z-score),[22],1.56
same,glycan array binding signal (z-score),[23],1.65
same,glycan array binding signal (z-score),[24],2.08
same,glycan array binding signal (z-score),[25],2.06
same,glycan array binding signal (z-score),[26],2.74
same,glycan array binding signal (z-score),[27],3.01
same,glycan array binding signal (z-score),[28],2.3
same,glycan array binding signal (z-score),[29],0.651
same,glycan array binding signal (z-score),[30],-0.11
same,glycan array binding signal (z-score),[31],0.508
same,glycan array binding signal (z-score),[32],0.386
same,glycan array binding signal (z-score),[33],0.175
same,glycan array binding signal (z-score),[34],0.085
